The list shows a part of the results. Sequences were assembled here from the parent chain. Inactive controls read about 0.05.
B1: TEV protease; numbered along this chain (parent)
chain: MGESLFKGPRDYNPISSSICHLTNESDGHTTSLYGIGFGPFIITNKHLFRRNNGTLVVQSLHGVFKVKDTTTLQQHLVDGRDMIIIRMPKDFPPFPQKLKFREPQREERICLVTTNFQTKSMSSMVSDTSCTFPSGDGIFWKHWIQTKDGQCGSPLVSTRDGFIVGIHSASNFTNTNNYFTSVPKNFMELLTNQEAQQWVSGWRLNADSVLWGGHKVFMVKPEEPFQPVKEATQL

Variants of: B1
Assay: raw area under fraction-flipped curve 0-4 h after induction (AUC4h, not background-subtracted), DNA-recorder readout of cleavage of the substrate (dimensionless); higher = more cleavage of the substrate by the protease variant
Conditions: temperature: 34 °C; time window: 0-4 h after rhamnose induction
Experimental: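 In vivo DNA recorder in E. coli TOP10(DE3) ΔrhaA at 34 °C. Each TEVp single-site mutant (parent TEVp 0) is paired with a single-site variant of the 7-mer TEVs (canonical ENLYFQ|S). The substrate sits between flexible linkers in a Bxb1-sfGFP-TEVs-SsrA fusion, so cleavage stabilises Bxb1 and speeds flipping of a recombination array, read by NGS. The value is the raw area under the fraction-flipped curve over 0-4 h after rhamnose induction (AUC4h), with ≥20 reads per time point. It is not background-subtracted; inactive controls average about 0.047.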
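Note: Bxb1 expression induced with 0.2% (w/v) L-rhamnose at OD600 near 0.5, cultures sampled hourly, flipped fraction per protease–substrate barcode pair counted by paired-end Illumina sequencing.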

Row | Variant | area with substrate ENLYAQS | area with substrate ENLYCQS | area with substrate ENLYDQS | area with substrate ENLYEQS | area with substrate ENLYGQS | area with substrate ENLYHQS | area with substrate ENLYIQS | area with substrate ENLYKQS | area with substrate ENLYNQS | area with substrate ENLYPQS | area with substrate ENLYQQS | area with substrate ENLYRQS | area with substrate ENLYSQS | area with substrate ENLYTQS | area with substrate ENLYWQS | area with substrate ENLYMQS | area with substrate ENLYVQS | area with substrate ENLYLQS | area with substrate ENLYYQS
1 | S60L | 0.0758 | 0.0823 | 0.0068 | 0.0487 | 0.064 | 0.0693 | 0.112 | 0.0464 | 0.0496 | 0.0244 | 0.061 | 0.0557 | 0.0758 | 0.0793 | 0.0855 | – | – | – | –
2 | E103A | 0.0774 | – | – | 0.0641 | 0.0849 | – | – | 0.0644 | – | 0.0773 | – | – | 0.0758 | – | 0.104 | 0.0843 | 0.102 | – | –
3 | D91A | 0.0746 | – | 0.0618 | 0.0623 | 0.0615 | 0.0649 | 0.124 | – | 0.0661 | 0.0778 | 0.0703 | – | 0.049 | – | – | – | 0.137 | – | –
4 | D91P | 0.102 | – | 0.0473 | 0.0706 | 0.0695 | – | – | – | 0.0659 | – | – | – | 0.0733 | – | 0.087 | – | 0.152 | – | –
5 | D91H | 0.0744 | 0.09 | 0.0637 | 0.0801 | 0.0532 | 0.0753 | 0.122 | 0.0563 | 0.0565 | 0.0912 | – | 0.0955 | 0.0818 | – | – | 0.0787 | 0.104 | 0.098 | 0.0605
6 | T70S | 0.0698 | 0.0839 | 0.0595 | 0.0667 | 0.063 | 0.062 | 0.0987 | 0.065 | – | 0.0705 | 0.074 | 0.0752 | 0.067 | 0.0768 | – | – | 0.073 | – | 0.0808
7 | L77S | 0.0735 | – | 0.0635 | 0.0654 | 0.0602 | 0.0619 | 0.0778 | 0.0612 | 0.0614 | 0.0598 | – | 0.06 | 0.0619 | 0.058 | 0.0613 | 0.0724 | 0.0737 | 0.0581 | 0.059
8 | T55G | 0.0787 | – | 0.066 | 0.0415 | – | 0.0646 | 0.103 | 0.0559 | 0.061 | 0.0676 | 0.031 | – | 0.0685 | 0.0802 | – | 0.0752 | 0.0899 | 0.0917 | 0.0598
9 | V67L | 0.0802 | 0.0795 | 0.0612 | 0.0614 | – | 0.0712 | – | 0.0501 | 0.0705 | – | 0.0458 | – | – | 0.0813 | 0.0763 | 0.0828 | 0.107 | 0.0811 | 0.061
10 | V67T | 0.0637 | 0.0921 | 0.0701 | 0.0645 | 0.0752 | 0.0648 | 0.0957 | 0.0507 | 0.0666 | – | 0.0878 | – | 0.051 | 0.0679 | – | – | 0.102 | – | 0.061
11 | K68T | 0.0739 | – | – | 0.0452 | 0.0655 | 0.0655 | 0.0682 | 0.0546 | – | 0.0692 | 0.054 | 0.0532 | 0.0734 | – | 0.0717 | – | 0.0735 | – | 0.0698
12 | M83T | 0.0499 | – | 0.067 | 0.0667 | 0.0574 | – | 0.0867 | – | 0.0564 | 0.0483 | 0.0628 | 0.0538 | 0.0775 | 0.0854 | 0.0635 | 0.0463 | – | – | 0.059
13 | F41W | 0.0756 | 0.0773 | 0.0459 | 0.0653 | – | 0.0692 | – | 0.0512 | 0.0773 | 0.0562 | 0.059 | 0.0356 | 0.0676 | 0.0603 | 0.0522 | 0.0777 | – | 0.0849 | 0.0481
14 | K100V | 0.0592 | – | 0.0619 | 0.0723 | 0.0678 | 0.0711 | 0.0836 | 0.037 | 0.0572 | 0.0751 | 0.0629 | 0.0647 | – | – | 0.0943 | – | 0.107 | – | 0.0762
15 | K100L | 0.0497 | – | – | 0.0658 | – | – | 0.12 | 0.0181 | 0.0869 | 0.0589 | – | – | – | – | 0.0815 | – | 0.128 | 0.119 | 0.0627
16 | K100E | 0.0662 | – | – | 0.071 | 0.062 | 0.0691 | 0.117 | 0.0595 | 0.0715 | 0.0908 | 0.0431 | 0.0572 | 0.071 | 0.0655 | 0.0769 | 0.0888 | – | – | –
17 | G63Y | 0.0665 | 0.0771 | 0.0669 | 0.055 | 0.057 | 0.0713 | 0.101 | 0.0658 | – | 0.068 | – | 0.0321 | – | 0.0685 | – | 0.0711 | 0.0825 | – | –
18 | G63Q | 0.0702 | 0.0781 | 0.0483 | 0.0552 | 0.07 | 0.0639 | – | 0.0591 | 0.0512 | 0.0672 | 0.0618 | 0.0508 | 0.0747 | – | – | 0.0802 | 0.109 | – | 0.065
19 | L56D | 0.049 | 0.0409 | 0.0491 | 0.0412 | 0.0458 | 0.0374 | 0.0067 | 0.0301 | 0.0449 | 0.0454 | – | 0.0526 | – | 0.0487 | 0.0424 | 0.0714 | 0.0553 | 0.0394 | –
20 | R102A | 0.0518 | 0.0587 | 0.0524 | 0.0552 | 0.0595 | 0.0534 | 0.0553 | 0.0534 | 0.057 | 0.0509 | 0.0589 | 0.0663 | 0.0633 | 0.0632 | 0.0743 | 0.0636 | – | – | –
21 | R102T | 0.0496 | – | – | – | 0.058 | 0.0453 | – | 0.0333 | 0.0488 | – | – | 0.0402 | 0.0524 | 0.0672 | 0.0503 | 0.0533 | 0.0506 | – | 0.0457
22 | R102C | 0.0539 | – | 0.0509 | 0.051 | – | 0.0527 | – | 0.0723 | 0.0523 | 0.0551 | 0.0388 | 0.0486 | 0.0548 | – | 0.0638 | – | 0.0659 | 0.0558 | –
23 | I36R | 0.0517 | 0.076 | 0.0525 | 0.0528 | 0.0466 | 0.0534 | 0.0465 | 0.0463 | 0.0474 | 0.0403 | 0.0478 | 0.0602 | 0.044 | 0.0488 | 0.046 | 0.0491 | 0.059 | 0.0365 | 0.0425
24 | I36E | 0.0501 | 0.0431 | 0.0359 | 0.0506 | 0.0254 | 0.0635 | 0.0496 | 0.0522 | 0.0521 | 0.0478 | – | 0.0385 | 0.0509 | – | 0.0447 | 0.0423 | 0.0473 | – | 0.0337
25 | I36V | 0.119 | – | 0.0688 | 0.0488 | 0.0639 | 0.0541 | – | 0.059 | 0.0735 | – | 0.0528 | 0.0668 | 0.0672 | – | 0.0647 | – | 0.131 | 0.0555 | 0.0566
